Measurements published in the supplement of paper PMC3334620.
Whole data set: some 33,000 sequences, median “E-score (-0.5 to 0.5)” near -0.036, cut for the highest 2% near 0.37. This is one part of the list.

target: T1, Yer064c (UniProt P40041); experiment: PBM E-score (8-mer binding enrichment) (E-score (-0.5 to 0.5)); higher = stronger / more preferred TF binding; most listed sequences are background and not binding sites; settings: protein concentration: 200 nM; construct: GST-full length
T1 sequence: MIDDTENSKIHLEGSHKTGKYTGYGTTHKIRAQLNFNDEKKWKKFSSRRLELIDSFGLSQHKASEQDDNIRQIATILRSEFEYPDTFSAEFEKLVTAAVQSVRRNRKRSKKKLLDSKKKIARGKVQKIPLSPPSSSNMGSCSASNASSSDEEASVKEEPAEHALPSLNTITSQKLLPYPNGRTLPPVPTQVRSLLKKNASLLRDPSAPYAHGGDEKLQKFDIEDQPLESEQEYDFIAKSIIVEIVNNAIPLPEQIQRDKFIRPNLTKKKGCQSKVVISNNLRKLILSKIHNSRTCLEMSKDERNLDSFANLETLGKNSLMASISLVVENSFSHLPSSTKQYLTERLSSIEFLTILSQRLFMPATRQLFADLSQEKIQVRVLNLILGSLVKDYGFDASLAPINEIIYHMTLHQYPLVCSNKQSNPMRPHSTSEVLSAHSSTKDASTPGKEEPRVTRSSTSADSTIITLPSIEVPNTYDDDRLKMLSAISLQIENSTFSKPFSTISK
How it was run: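 For each ungapped eight-base word taken together with its reverse complement, the Universal PBM Analysis Suite assigned an E-score. Binding data came from GST-tagged yeast transcription factors, applied at about 100-200 nM, on universal all-10-mer Agilent arrays made double-stranded by primer extension. Fluorescent anti-GST marked bound protein, and scans were normalised with masliner.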

Sequence	PBM E-score
AATGTTCG	-0.098
CCGTCCCC	-0.107
ATCTCTAG	-0.0229
ATACTTTA	-0.11
CTGCATAC	0.126
AGAGCAGG	-0.138
TATCGAGA	0.14
ACAAGACT	0.37
CCCAGGGG	-0.182
GGTAGCCA	0.183
GGTTGCGA	0.0366
CGGGGTTA	-0.0527
AATGTTGC	-0.0372
ATAGCAAT	0.101
AAGTTGCG	-0.184
CCCGCTCC	-0.293
CAGGCACG	0.0423
AAGGCCGC	-0.364
AGATTGGC	-0.174
CTTGATTA	0.303
ATAGAGTG	0.00994
GGTGGACA	-0.137
AAATTCGG	0.0245
CTATATCA	-0.0493
AAAATGTA	0.00062

Sequence	PBM E-score
ACGTTCGA	-0.0758
AGATGAAC	-0.0599
ATGACCAG	0.127
CAGGATAC	-0.121
CTGTGTAA	0.211
TAGGGAAA	0.0303
AATCATAT	0.428
GTGACAAC	-0.0512
AAGCCTCC	-0.13
CTTTCATA	0.0438
GAGATGAA	0.0961
AAAATAGG	-0.063
CCGGCGCC	-0.23
GCTAGAGA	-0.0643
ACGGTTCG	-0.129
GAAAGACC	-0.152
CGACTCTC	0.381
TACACAAA	0.143
AACTACAC	0.0443
CCGCCAAA	-0.163
CCACCCAG	-0.176
AATAGCTA	-0.0209
GTATGGAA	-0.145
GATAGTCA	0.476
GCTCTTAA	0.00472

Sequence	PBM E-score
GGGGTAGA	-0.0382
CCTGTGAA	-0.0194
AAAGCATA	-0.0765
ATCTATAA	0.058
CAGGTACA	-0.0726
CATATTCC	-0.148
GGGCTCCA	-0.281
ATGTACAC	0.0029
CCCGGGGC	-0.152
CCCTGACG	-0.211
GAACCATC	0.252
CACGCGGA	-0.0849
GACCAAAA	0.0327
GCGGATAA	-0.0818
AACTCAGT	0.0865
AGGCCTCC	-0.257
ATTGGCTG	-0.157
GGATTCAC	0.196
TCACCTCA	0.15
TATTGTAA	-0.0352
CGGCTCAA	0.0472
AGCCCTAG	-0.116
GCTAACCA	0.178
CGTGATGA	0.104
CATTAAAA	0.0672

Sequence	PBM E-score
ATGCTAAT	-0.0289
AAGTCGCT	0.269
GGAGGCCC	-0.253
CGCCGGGC	-0.251
GAGCTTAC	0.0416
AAAATCTC	0.016
CTTCGAGC	-0.16
GCCAAGAC	0.0444
CTGACCAC	-0.072
ATTCGCCA	0.125
CCAAACTC	-0.129
AACGCTCG	-0.181
CGACCTAC	0.0021
ACCCGCGC	0.0809
GATGGGGC	-0.444
GGCCTACA	-0.0963
CGGGGAAC	-0.245
AAAATCGC	-0.0736
CCGTACAG	-0.123
GTTACTAA	0.184
CTGTTCGC	-0.0145
CTGGGGTA	-0.176
GCCCACCC	-0.139
GTCGGGTA	-0.0525
GGGTCTAA	0.0345

Sequence	PBM E-score
CTTAGATA	0.0304
ATACCGTA	-0.25
AATCGCCT	0.199
ATGGCCAT	-0.0696
GTTGTGAA	-0.00059
CTATTGTC	-0.0877
ACGGGAAT	-0.0476
GATGGAAA	-0.149
TCCTCTCA	-0.0954
ACCAAGTA	0.022
ACGGCAGG	-0.188
ATTTACTA	0.181
GTATATGA	0.189
ATTTTTCG	0.00581
GGGTTCAA	-0.0488
CCGGATAA	-0.0102
GTTGGAGA	-0.0135
CTCTCCCA	-0.0696
AGAGTAAC	-0.00742
ACGATAGG	-0.256
TCAACTAA	0.272
GACGTTAA	0.0734
GTCTGGCA	-0.0983
AACTTAGG	0.0629
GGGTGCGA	-0.211

Sequence	PBM E-score
AGGTGTCA	0.0196
TGTTCAAA	0.146
CCGAAAAA	0.0649
CCATACAA	-0.0905
AAAAATCA	0.248
GTTCAGGA	-0.0283
GAGACGAC	0.104
CAAATTAC	-0.126
CTTAGGAA	0.172
CACTTTCC	-0.169
ACCCGAAG	-0.106
GCGTTAGC	-0.14
ACCGTAGT	0.0918
TGTGTAAA	0.187
CAATCACA	0.346
ATGAATTC	0.0747
AAACCCAA	-0.0274
AACAATCA	0.327
ATCATAGG	0.27
ACTCCCCG	0.185
AATTGCCG	-0.0553
GGCGGACA	-0.28
GCCAGTTA	-0.0971
CTTAAATA	-0.0273
CGACCCTA	-0.0957

Sequence	PBM E-score
AGTCGTAT	0.379
GGTGACCA	0.0718
CCGATGCG	-0.223
GGCTTGGA	-0.205
CGGTACGA	-0.0482
ACCCATTA	0.13
GTGCTTGA	0.0544
CGAACACG	0.0247
CCCACGCG	-0.157
CAAGTGTG	0.0948
AAGGGGCT	-0.138
GCGTATCC	-0.0378
CGAAGTCG	0.286
ACCATAGG	0.0693
AATAAAAA	0.109
GAGTTAGA	0.0494
GATGGTAA	-0.0359
GATTATCA	0.269
AGTTGGCG	0.00403
GACAGAGA	-0.0807
CGACGTCG	0.00223
CGAAGCCG	-0.198
ACATGCTA	-0.181
GGTAATAA	0.0221
AGAGTCAA	0.436

Sequence	PBM E-score
AGCAATAT	0.145
CTAATTAC	0.101
AGGTAGCA	-0.322
ATGTACGG	-0.179
CTTGTGGA	-0.174
CATGGGAA	-0.155
AAGGAGAC	0.169
CGCGTTTA	-0.0154
ACGGCCGC	-0.0196
GGAAGGGA	-0.163
GGAGGTTA	0.0556
AGAAGGGA	-0.186
AAACAACT	-0.0707
GTATATCA	0.0544
GCCGAGCA	-0.188
AAAGAGGA	-0.125
CACCTCCC	-0.0848
CGGTCAGC	-0.189
AAATTAGC	0.0202
TTCTGAAA	-0.01
GACGTCTA	0.0755
ACAACCGG	-0.183
CATTTGCC	-0.215
ATACTGTA	-0.0513
AGGCGCAC	-0.213

Sequence	PBM E-score
CGAGTACC	0.109
AATGATAC	0.118
CACTTCAA	-0.0203
CGCCCTTA	-0.0857
CACTGATC	0.0611
CCTGAAAC	-0.0495
CTTTACCC	0.105
CATATTCA	0.111
AGGGTGAA	0.00212
CGGCATGA	0.216
CCCTGCTC	-0.186
CTGCGTGC	-0.164
GGAGACCA	-0.176
CTCTAGGC	-0.058
CCGGACGG	-0.0787
CGTAGAAG	0.0118
GGTTTGAC	0.122
ATACGTGG	-0.11
TAAATCCA	0.0243
ATATCTGG	-0.0892
ACTACGAC	0.302
CTTCATTC	-0.116
CTCCGCAG	0.00319
CTCGCTCA	0.141
GCATATAA	0.143

Sequence	PBM E-score
CACATTGC	-0.0307
CTGCCTTA	-0.099
ATCGGATA	0.0451
CGTGATCC	-0.251
CACCCTAC	0.127
CTGGCGCC	-0.331
CCCTAAAG	-0.281
CGGGGAGA	-0.194
CTGAGCTC	0.0384
AAGCAAGG	-0.116
TACCAGGA	-0.0353
AACCTCAG	0.0375
TAAAGTCA	0.413
ATGTAGCA	-0.146
AGAATCGG	-0.0288
CAAGGCCC	-0.192
ACTATATG	0.182
TTAGTGAA	0.178
CAAAAGAC	0.157
GATGCCCA	-0.177
GAGGATGC	-0.231
TATTGCAA	0.00227
CGCAAAAG	-0.0492
CGTACCTA	-0.123
CATATCCC	-0.0652

Sequence	PBM E-score
CGACTCAC	0.468
AGGGGAAT	-0.0928
GGAAGCAC	-0.0925
CTTAGAGA	0.0855
CTAGAGAA	0.0635
CCCCTTCC	-0.186
ACTAAAGG	0.261
ATTCACAA	0.135
GAATGGGC	-0.247
CGCACGCG	-0.213
CAGAGCAC	-0.102
GATCTGGC	-0.202
GGGGGCAC	-0.338
ATCGGTGG	-0.2
ATCCGATG	0.115
ACCCATCA	0.219
AGGGCCCA	-0.225
AACTGGCT	-0.28
AGAGCGGG	-0.142
CGAAGGCC	-0.358
AAAAGGCG	-0.251
GATAAGGC	-0.155
AATAAATC	-0.0502
CCTAATCC	-0.33
GAGTTGAA	0.0253

Sequence	PBM E-score
CATACGAA	-0.0411
CTTCCCGC	-0.123
GTCCCCTA	-0.27
AGTGAACT	0.0503
ACGTCGCT	-0.0775
CCATAAGG	-0.121
TAAGGTCA	0.032
AATCGGCG	-0.198
CACTGCAA	0.0572
CGCCCGGA	-0.175
GGTTCCAC	-0.134
ATTGGGCA	-0.301
AGTTTCCG	-0.0535
CAGTCTAG	0.0103
ACGGCCCA	-0.251
ATCGCTGG	0.0196
CTAGGTCA	0.273
TGAATCAA	0.419
ATCATCTC	0.294
ACGTAGAA	0.133
AAACACCA	-0.00761
GTTCAACA	-0.0217
ATTCCACA	0.0717
AAAGTCTA	-0.0187
ACTGACGC	-0.0857

Sequence	PBM E-score
GAGAACAA	-0.0452
CACCTTCC	-0.0917
CCCATCAA	-0.00541
TGCTGCCA	-0.325
GTATAGGA	0.00398
AAGTTCCC	-0.163
GCCCCAGC	-0.293
AGGACTTG	0.0575
GCGAAGGA	-0.134
ACGAGCGT	-0.0803
CGTCTGGA	-0.00704
AGCCATGC	0.206
AACTTAGA	-0.0311
AGATGGGG	-0.242
GGATCCTA	-0.217
ATTTCCAA	-0.0555
AAATAGCA	-0.119
GACATTGA	0.0816
CCATCCAG	-0.139
CTCGCGGA	0.145
AGCTTTAT	-0.108
AGCTCACA	0.104
CACTAGAC	0.0218
ACTGCTAA	0.059
ATAGTGCA	-0.0217

Sequence	PBM E-score
CCAACCGA	0.0381
AGGCCCCA	-0.324
GATGCAGA	-0.0836
CCTGAACG	-0.212
CTAACGAG	0.013
ACACACAA	0.0611
CGAGGACC	-0.106
AGCTGAGG	-0.0711
CCGGTTCG	-0.206
CGAGCGCC	-0.232
ACCCCTAA	-0.0884
ACAAACGT	-0.117
ACAAAGGT	-0.0848
GTTAAAAC	-0.0289
TTCTAAAA	-0.00587
CATAACGG	0.00763
CGCGTTAC	-0.196
GACCTAGA	-0.0369
CGTCCTAA	0.129
